Results taken from the supplement of paper PMC11417369.
The list shows a part of the results.

tested on: PfAP2-HC AP2 domain (GST-tagged); assay: gcPBM binding intensity (ln(normalized median fluorescence intensity)); higher = stronger DNA binding
Outline: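 GST-tagged P. falciparum DNA-binding domains, expressed in E. coli (about 25 μg on average), were applied for 1 h to an Agilent 4 × 180k array of primer-extended double-stranded 36-bp intergenic genomic probes plus negative controls. The binding buffer was 1× PBS with 1% milk, 0.2 mg/ml BSA, 0.5% salmon testes DNA and 0.03% Triton X-100. Bound protein was detected with Alexa488 anti-GST antibody and scanned at 488 nm. Binding intensity is the highest Masliner-normalised natural-log median intensity across replicate spots of either probe orientation.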

| Sequence | gcPBM binding intensity (ln) |
| --- | --- |
| AAAGATATTTTTATCTCACACATATAATATATATAT [CACACA_site5478] | 9.66 |
| TATAGAAAATTTATATGTACATATATATATATATAT [XGTACX_site4451] | 9.69 |
| TAAAATTTAAGTTATACACACTTAAGTAACATCATC [CACACA_site6395] | 9.71 |
| GCATATGTATATAATGTGCACATGGATTATATAAAA | 9.87 |
| GTTACTGCATACATAACACACATATTCAAAACACAT [CACACA_site3502] | 9.88 |
| TATTTACAGACATGCGCACACATAAATAAATAATAG [CACACA_site2411] | 9.84 |
| AAATACAAGGGACATGCATACCACTATTTTTTAAAT [TGCATGCA_site588] | 9.58 |
| TTTATATAATAGTTATGTACTTAAACGAAAGATACA [XGTACX_site8495] | 9.49 |
| TACATATTTTTCTTTTCACACATGGAAAAAAAAGGT [CACACA_site5146] | 9.55 |
| TATTAATTCATTTTTTTTTTTTTTTTTTTTTTTTTT [CACACA_negctrl_site1215] | 9.17 |
| ATATATATATATATATATATATATATATATAAGTGG [XGTACX_negctrl_site90] | 9.47 |
| CCCTTAATTTAAAACACACAAACAAATAAGTTAGTT [CACACA_site3793] | 9.69 |
| TATTTTTTTTTTCACTGTACATACAACAACAAATAT [XGTACX_site8835] | 9.61 |
| AATATATTTATTATAACACACACATATATATATTAT [CACACA_site8264] | 10.1 |
| GATTTAATAGATACGAGTACAGAAATTGTATACATA [XGTACX_site7563] | 9.6 |
| TATATATTTTTTTCATGTACATATAAATTAATTAAA [XGTACX_site8680] | 9.34 |
| ACACAAAAAATTAAGTGTACTCATCAAGAAAAAAAA [XGTACX_site3456] | 9.81 |
| ATAAAATACCCTGATCTATTACATATTATATTCTGC [GTGCAC_negctrl_site311] | 9.58 |
| ATAGGAAAAAGTATTGGTACACATACATATACGTTA [XGTACX_site5819] | 9.8 |

| Sequence | gcPBM binding intensity (ln) |
| --- | --- |
| TTATATGTTTTGTGTACACAATTTATTAAATTAATA [CACACA_site5645] | 9.85 |
| CAAACAATTAAACAAACACACATATACATGTATATA [CACACA_site2060] | 10.1 |
| AAAATAAGCCATATACGTACATACATATATAAATAT [XGTACX_site4197] | 9.73 |
| TAATTACACTTTAAAAGTACATATATAATAACATTA [XGTACX_site379] | 9.47 |
| TTTTTTATGTTCAATTGTACATATACATATATATAT [XGTACX_site6013] | 10.2 |
| TTCATATTTCATATATGTACTTATGTTCAATATAGT [XGTACX_site3811] | 9.66 |
| AATGGAAAAATAGGCACACACACATAAATACAGATA [CACACA_site4844] | 11.2 |
| TAAAAAAAAATAAAAAGTACATATATATATATATAT [XGTACX_site1155] | 9.71 |
| AATATGAAACAAGACGCACACATAAATAAATAAATA [CACACA_site326] | 10.1 |
| AGTGCTACTCATGATTGAATAGAGGAAAAGGCGGTG [GTGCAC_negctrl_site49] | 9.61 |
| CACATAAAAAAATAAACACACATATGTATATAAATA [CACACA_site7483] | 9.98 |
| CTTTAAATGATGTAAACACACACATATACATTATTA [CACACA_site9035] | 10 |
| CCATATTTAATAAAATGTACTCATTCTTTTATTTTA [XGTACX_site7802] | 9.47 |
| TTAATAGTGGAAATATGTACATAATTTTGGTCTTTT [XGTACX_site1664] | 9.64 |
| CTGTTCAAAATATGAACACACACATATATATATATA [CACACA_site8638] | 10 |
| TTGAAAAATCAGCACACACACAAATACATACATATT [CACACA_site7505] | 10.5 |
| ACATATGGCACATATGTACACACGTATAGATAATAT [CACACA_site2024] | 10.2 |
| CTAAAAAAATAATAAAGTACACAAACGAATATATAA [XGTACX_site668] | 9.82 |
| CTTTTTTGGTACATCACACATTTTTACATTCCCTTT [CACACA_site4957] | 10 |

| Sequence | gcPBM binding intensity (ln) |
| --- | --- |
| TTTTTTTTTTTTTTTGCACACTATATTTAATATAAG [CACACA_site2444] | 9.54 |
| ATAGATGCATATTATACACACATATGTAAATACATT [CACACA_site4691] | 9.95 |
| CCACTATATAAAATCACACATTTATATTATACATAT [CACACA_site4570] | 9.93 |
| TTTATTTTAATTTATTGTACATTGTTATCAAGTGCA [XGTACX_site1110] | 9.46 |
| TATTGGTAATGTAAATGTACATATAGATATTTACAT [XGTACX_site1922] | 9.61 |
| ATAATAGTTAAATGTACACACTAACTACATGGAATA [CACACA_site5753] | 9.87 |
| AAAAAAAGAAATTAGGTGCATAGCATTAACCGATAA [GTGCAC_site9582] | 9.77 |
| TTGAAGTTAATAAAAACTTTATACATGAAATTATTT [CACACA_negctrl_site684] | 9.45 |
| GATTCCTTTAACCCTGCACACATACATACATTTATA [CACACA_site9308] | 10.1 |
| TATATTTCTTATTACATACACACATATACATATATG [CACACA_site3202] | 9.95 |
| TAATAATATAATAATACACACTCATTATATATATAA [CACACA_site6045] | 9.69 |
| CCATTCAAATTTCGCACACACATACAAAAAAAAAAA [CACACA_site3093] | 10.1 |
| TATAAATGATTAATTTGTACATATTTTACTTAATTG [XGTACX_site5271] | 9.63 |
| TAAATAAATAAATATATATATATATATATATATATA [XGTACX_negctrl_site70] | 9.37 |
| TTGATGATATCATTTTGTACTTATACGTATTTAAAA [XGTACX_site148] | 9.53 |
| ACAAAAAAAAAAAAAATACACACACATAAAAAAAAA [TGCATGCA_negctrl_site333] | 10.2 |
| ACAAAATATTTTTCTTCACACATCCATTCAACATTT [CACACA_site5886] | 9.91 |
| TATATATATATATATATTAATAATTAATATAAAAGA [XGTACX_negctrl_site32] | 9.61 |
